Experimental data from PubChem BioAssay AID504332 (National Center for Advancing Translational Sciences (NCATS), 2011).
The campaign covered roughly 350,000 compounds. About 31,000 (8.9%) were called active. This list was built around the results that the source calls inconclusive (neither active nor inactive); the mix of calls is not that of the screen. The call rests on the fitted dose curve; in most records, active means well fitted inhibition curve with a large enough effect; inconclusive means small, poorly fitted or top-dose-only effect; inactive means no such curve, though single readings can be large or run the other way. Where the call is inconclusive, the potency comes from a doubtful curve fit.

These compounds were tested against Histone-lysine N-methyltransferase EHMT2 (Homo sapiens) (UniProt Q96KQ7) (assay: qHTS Assay for Inhibitors of Histone Lysine Methyltransferase G9a). Settings: G9a H3K9 monomethylation, AlphaScreen, 2 h; activity, negative = inhibition: at 59 µM (top of the series) unless noted.
Outline: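 Chemiluminescent proximity detection of H3K9 monomethylation, read after 10 min bead incubation in the dark. Reaction: 20 nM G9a, 500 nM biotin-H3K9 peptide, 20 uM SAM cofactor, 2 h, room temperature, following 15 min enzyme-compound preincubation.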
Further: nearly all actives have a fitted effect of over 75% in size.
On the % scale 0 is the no-effect control and ±100 the full control effect; potency means the concentration at half of the fitted maximal effect; tags describe the fitted curve by direction and shape.

Sequence of UniProt Q96KQ7 (Q96KQ7 whole entry, looked up): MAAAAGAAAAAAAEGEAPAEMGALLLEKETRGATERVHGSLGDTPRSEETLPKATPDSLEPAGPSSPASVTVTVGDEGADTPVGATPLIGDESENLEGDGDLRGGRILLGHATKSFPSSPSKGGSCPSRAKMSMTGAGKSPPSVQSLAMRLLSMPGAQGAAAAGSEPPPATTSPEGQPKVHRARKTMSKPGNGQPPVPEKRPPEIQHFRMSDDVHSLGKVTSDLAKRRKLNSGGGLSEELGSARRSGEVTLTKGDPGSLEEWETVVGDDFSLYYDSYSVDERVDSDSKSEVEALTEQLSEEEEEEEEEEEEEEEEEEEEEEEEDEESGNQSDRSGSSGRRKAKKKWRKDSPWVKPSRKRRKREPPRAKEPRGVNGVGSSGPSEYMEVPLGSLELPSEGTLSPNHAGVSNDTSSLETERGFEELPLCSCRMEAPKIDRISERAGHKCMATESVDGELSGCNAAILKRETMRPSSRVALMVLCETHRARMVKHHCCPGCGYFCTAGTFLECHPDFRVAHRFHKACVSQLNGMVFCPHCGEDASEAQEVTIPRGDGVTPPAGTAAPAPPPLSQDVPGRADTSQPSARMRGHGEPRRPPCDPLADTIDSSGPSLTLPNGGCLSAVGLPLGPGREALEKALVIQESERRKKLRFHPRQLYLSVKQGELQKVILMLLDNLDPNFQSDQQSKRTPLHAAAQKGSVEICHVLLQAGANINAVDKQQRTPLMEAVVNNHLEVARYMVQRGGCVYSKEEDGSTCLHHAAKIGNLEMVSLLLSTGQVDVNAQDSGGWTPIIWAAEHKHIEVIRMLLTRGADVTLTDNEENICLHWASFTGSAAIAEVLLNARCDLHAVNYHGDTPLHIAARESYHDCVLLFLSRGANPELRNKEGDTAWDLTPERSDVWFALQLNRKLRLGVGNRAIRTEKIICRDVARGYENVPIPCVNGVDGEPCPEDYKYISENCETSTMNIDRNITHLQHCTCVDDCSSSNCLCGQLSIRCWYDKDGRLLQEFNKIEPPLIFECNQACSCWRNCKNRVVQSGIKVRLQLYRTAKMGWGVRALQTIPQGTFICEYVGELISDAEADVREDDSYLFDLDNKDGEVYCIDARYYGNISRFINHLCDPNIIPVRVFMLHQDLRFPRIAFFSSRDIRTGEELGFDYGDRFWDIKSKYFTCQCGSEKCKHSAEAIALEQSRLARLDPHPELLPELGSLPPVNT

**Q.** For CCOC(=O)C(NC(=O)c1cccc(Cl)c1)(Nc1sc2c(c1C(N)=O)CCC2)C(F)(F)F (stereo not drawn), which Potency is on record?
**A.** Its Potency is active: 20 µM.

**Q.** Cc1ccc(Cn2ncc3c(NCCCN(C)C)ncnc32)cc1 was tested. Which Potency did it give?
**A.** The Potency was inconclusive: 89.1 µM [inhibitor, single point].

**Q.** How did the Potency turn out when O=C(Nc1ccc(Cc2ccncc2)cc1)c1cccc([N+](=O)[O-])c1 was run?
**A.** The Potency was inconclusive: 2.82 µM [inhibitor, partial curve, poor fit].

**Q.** With CC1CCc2c(sc(/N=C/N(C)C)c2C#N)C1 (stereo not drawn) as the compound, how does the Potency read?
**A.** The Potency was active: 22.4 µM.

**Q.** How did the Potency turn out when Cc1cc(S(=O)(=O)N2CCCOC2CNC(=O)C(=O)NCCc2ccco2)ccc1F (stereo not drawn) was run?
**A.** Its Potency is inconclusive: 89.1 µM [inhibitor, single point].

**Q.** CCN1CCN(c2cc(C)c3cc(NC(=S)N4CCN(c5ccccc5F)CC4)ccc3n2)CC1 was tested. Which Potency did it give?
**A.** The Potency was active: 44.7 µM.

**Q.** How did the Potency turn out when COc1ccc(CNC(=O)c2cc3cccc4c3n2CC(C)S4)c(OC)c1 (stereo not drawn) was run?
**A.** The Potency was “inactive”.

**Q.** For COc1ccc(C(=O)Oc2cc(-c3ccc4c(c3)OCO4)cc(=O)c3c(C)oc(C)c23)cc1, which Potency is on record?
**A.** Its Potency is inconclusive: 28.2 µM [inhibitor, single point].

**Q.** How did the Potency turn out when COc1ccc(C(=O)CSc2nnc(Cn3nnc4ccccc43)n2C)cc1 was run?
**A.** The Potency was inconclusive: 31.6 µM [inhibitor, single point].

**Q.** How did the Potency turn out when CC(=O)Nc1ccc(OC(F)(F)C(F)F)c(NC(C)=O)c1 was run?
**A.** The Potency was “inactive”.

**Q.** For CCOc1ccc(NC(=O)N(C(C)C)C2CCN(C(C)=O)CC2)cc1, which Potency is on record?
**A.** The Potency was “inactive”.

**Q.** With O=[N+]([O-])c1cccc(-c2n[nH]c(=S)n2-c2ccc(Br)cc2)c1 as the compound, how does the Potency read?
**A.** Its Potency is active: 6.31 µM.

**Q.** For CC(C)c1ccc(CC(NC(=O)c2ccccc2)C(=O)NCC(=O)O)cc1 (stereo not drawn), which Potency is on record?
**A.** Its Potency is inconclusive: 89.1 µM [inhibitor, partial curve, poor fit].

**Q.** COc1cc(/C=N/NC(=S)Nc2cccc(S(=O)(=O)N(C)C)c2)ccc1O was tested. Which Potency did it give?
**A.** Its Potency is “inactive”.

**Q.** O=C(CCOc1ccc(F)cc1)Nc1nccs1 was tested. Which Potency did it give?
**A.** Its Potency is “inactive”.

**Q.** For O=[N+]([O-])c1ccccc1S(=O)(=O)NC1CC2CCC1C2 (stereo not drawn), which Potency is on record?
**A.** The Potency was “inactive”.

**Q.** For CN(CC(=O)Nc1ccc(Cl)c(S(=O)(=O)N2CCOCC2)c1)C(=O)c1ccc(C#N)cc1, which Potency is on record?
**A.** The Potency was inconclusive: 10 µM [inhibitor, partial curve, poor fit].

**Q.** How did the Potency turn out when CN(CC(=O)Nc1ccc(Cl)cc1)C(=O)c1sccc1-c1ccccc1 was run?
**A.** The Potency was inconclusive: 39.8 µM [inhibitor, single point].

**Q.** With CN(C(=O)CC1C(=O)NCCN1CC(c1ccccc1)c1ccccc1)C(C1CC1)C1CC1 (stereo not drawn) as the compound, how does the Potency read?
**A.** The Potency was inconclusive: 39.8 µM [inhibitor, single point].

**Q.** How did the Potency turn out when O=C(NC(=S)NNC(=O)c1ccccc1[N+](=O)[O-])c1ccccc1 was run?
**A.** The Potency was active: 2.51 µM.

**Q.** Which Potency does the source give for COc1ccc(C(=S)N2CCOCC2)cc1OC(=O)c1cc([N+](=O)[O-])c(C)c([N+](=O)[O-])c1 here?
**A.** The Potency was inconclusive: 10 µM [inhibitor, partial curve, poor fit].

**Q.** CCOC(=O)c1cccc(NC(=O)CSc2nnc(-c3ccoc3C)n2CCOC)c1 was tested. Which Potency did it give?
**A.** The Potency was inconclusive: 31.6 µM [inhibitor, single point].

**Q.** How did the Potency turn out when CCOC(=O)/C(=N\Nc1cc(Cl)ccc1Cl)N1CCN(CC)CC1 was run?
**A.** Its Potency is inconclusive: 12.6 µM [inhibitor, partial curve, poor fit].

**Q.** How did the Potency turn out when Cc1cc(S(=O)(=O)NCc2cccs2)ccc1-n1cnnn1 was run?
**A.** Its Potency is inconclusive: 39.8 µM [inhibitor, single point].

**Q.** Which Potency does the source give for COC(=O)[C@@H]1CC[C@H](C)[C@@H](c2ccc(C)cc2)N1C(=O)c1ccc(/C=N/OC[C@@H](O)[C@H]2O[C@@H]3OC(C)(C)O[C@@H]3[C@H]2O)cc1 here?
**A.** Its Potency is inconclusive: 89.1 µM [inhibitor, single point].

**Q.** How did the Potency turn out when COc1ccccc1NC(CC(=O)c1ccccc1)C(=O)OCC(=O)c1ccc(C)cc1 (stereo not drawn) was run?
**A.** Its Potency is inconclusive: 39.8 µM [inhibitor, single point].

**Q.** Cc1ccc(OCC(=O)Nc2nc(-c3ccccn3)cs2)c(C)c1 was tested. Which Potency did it give?
**A.** Its Potency is active: 39.8 µM.

**Q.** Which Potency does the source give for COc1ccc(NC(=O)C2CCN(S(C)(=O)=O)CC2)c(OC)c1 here?
**A.** Its Potency is active: 89.1 µM.

**Q.** O=C(CSc1nnc(NC(=O)C2CC(=O)N(c3ccc(F)cc3)C2)s1)NCc1ccco1 (stereo not drawn) was tested. Which Potency did it give?
**A.** Its Potency is active: 44.7 µM.

**Q.** For C=CCn1c(SCC(=O)c2ccc(O)c(O)c2)nnc1-c1cccc(C)c1, which activity, negative = inhibition is on record?
**A.** The activity, negative = inhibition was inconclusive: -90% [inhibitor] [at 2.33 µM].

**Q.** For CCOCCn1c(CN2CCC(Cc3ccccc3)CC2)nc2c1c(=O)n(C)c(=O)n2C, which Potency is on record?
**A.** The Potency was inconclusive: 79.4 µM [inhibitor, partial curve, poor fit].

**Q.** Which Potency does the source give for O=S(=O)(c1ccc2nc(N3CCN(c4ccccc4)CC3)ccc2c1)N1CCCCC1 here?
**A.** The Potency was inconclusive: 3.55 µM [inhibitor, partial curve, poor fit].

**Q.** For Cc1cccc(NC(=O)CSc2nc3c(oc4ccccc43)c(=O)n2-c2ccc(F)cc2)c1, which Potency is on record?
**A.** The Potency was “inactive”.

**Q.** COc1ccc2c(CNCCc3ccccc3)c(C(=O)O)n(Cc3cccc(F)c3)c2c1 was tested. Which Potency did it give?
**A.** Its Potency is inconclusive: 31.6 µM [inhibitor, partial curve, poor fit].

**Q.** Which Potency does the source give for Cc1cc(Cl)c2oc(C(=O)N3CCN(C(=O)c4ccco4)CC3)c(C)c2c1 here?
**A.** The Potency was inconclusive: 79.4 µM [inhibitor, single point].

**Q.** For CC(=O)N(C(C)=O)n1c(/C=C/c2ccc([N+](=O)[O-])cc2)nc2ccccc2c1=O, which Potency is on record?
**A.** The Potency was inconclusive: 39.8 µM [inhibitor, partial curve, poor fit].

**Q.** Which Potency does the source give for COC(=O)c1cccc(NC(=O)CCc2ccccc2)c1 here?
**A.** Its Potency is inconclusive: 89.1 µM [inhibitor, single point].

**Q.** With O/N=C(\c1ccccc1)c1nccc2ccccc12 as the compound, how does the Potency read?
**A.** Its Potency is “inactive”.

**Q.** How did the Potency turn out when CCOC(=O)C1CCCN(C2=NC(=O)/C(=C/c3ccc(OC)cc3OC)S2)C1 (stereo not drawn) was run?
**A.** The Potency was active: 25.1 µM.

**Q.** How did the Potency turn out when COc1ccccc1Sc1nc(-c2ccccn2)ncc1OC was run?
**A.** Its Potency is inconclusive: 89.1 µM [inhibitor, single point].

**Q.** How did the Potency turn out when CC(NC(=O)COC(=O)/C=C/c1ccco1)c1ccccc1 (stereo not drawn) was run?
**A.** The Potency was inconclusive: 79.4 µM [inhibitor, single point].

**Q.** How did the Potency turn out when Nc1cc(S(=O)(=O)O)cc([N+](=O)[O-])c1O was run?
**A.** The Potency was active: 44.7 µM.

**Q.** Which Potency does the source give for O=C(NCc1nnc(SCc2ccc(C(F)(F)F)cc2)n1-c1ccccc1)C12CC3CC(CC(C3)C1)C2 here?
**A.** Its Potency is inconclusive: 70.8 µM [inhibitor, partial curve, poor fit].
